# Assay results taken from ChEMBL document CHEMBL5724801, “EUbOPEN Chemogenomics Library - Multiplex” (2024).
# What was measured:
# Type in all cases: toxicity, cell-based
# Fibroblast = assay: Multiplex assay against human fibroblast
# In short: (§1)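 Four dyes were applied at seeding to live cells: Hoechst33342, BioTracker Green Microtubule Cytoskeleton Dye, MitoTracker Red and Annexin V Alexa Fluor 680. Imaging after compound addition used a CQ1 microscope at 37°C and 5% CO2. CellPathfinder machine-learning gating then sorted cells into Hoechst high-intensity objects or normal cells, normal cells into healthy, pyknosed or fragmented nuclei, and pyknosed cells into mitotic or apoptotic, with tubulin, mitochondrial-mass and membrane-permeability phenotypes given as per cents of healthy-nucleus cells.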
# HEK-293T = assay: Multiplex assay against HEK293T; settings: human; in short: as §1
# U2OS = assay: Multiplex assay against U2OS; settings: human; in short: as §1
# [1] = 12 h, 1 µM, compound concentration 1 uM
# [2] = 12 h, 10 µM, compound concentration 10 uM
# [3] = 24 h, 1 µM, compound concentration 1 uM
# [4] = 24 h, 10 µM, compound concentration 10 uM
# [5] = 48 h, 1 µM, compound concentration 1 uM
# [6] = 48 h, 10 µM, compound concentration 10 uM
structure (smiles),measurement,setting,value
CCn1c(-c2nc3cc(C(=O)N4CCCC(N)C4)ccc3n2C)cc2ccccc21.Cl (stereo not drawn),Population Apoptotic (%),Fibroblast; [1],"63% and 32% and 6.12%, 22.58% [2024-01]"
same,Population Mitochondria Different-Phenotype (%),Fibroblast; [1],"4% and 17% and 9.28%, 12.12% [2024-01]"
same,Population Apoptotic (%),Fibroblast; [2],"41% and 38% and 10.84%, 28.57% [2024-01]"
same,Population Fragmented Nuclei (%),Fibroblast; [2],"22% and 32% and 5.7%, 7.17% [2024-01]"
same,Population Apoptotic (%),Fibroblast; [3],"50% and 55% and 0%, 29.41% [2024-01]"
same,Population Mitochondria Different-Phenotype (%),Fibroblast; [3],"5% and 20% and 9.3%, 4.12% [2024-01]"
same,Population Apoptotic (%),Fibroblast; [4],"70% and 59% and 20.55%, 54.9% [2024-01]"
same,Population Fragmented Nuclei (%),Fibroblast; [4],"22% and 30% and 5.75%, 5.78% [2024-01]"
same,Population Apoptotic (%),Fibroblast; [5],"66% and 51% and 7.69%, 73.33% [2024-01]"
same,Population Fragmented Nuclei (%),Fibroblast; [5],"23% and 32% and 14.35%, 9.35% [2024-01]"
same,Population Mitochondria Different-Phenotype (%),Fibroblast; [5],"3% and 23% and 16.28%, 4.47% [2024-01]"
same,Population Mitotic Cells (%),Fibroblast; [5],"33% and 48% and 92.31%, 26.67% [2024-01]"
same,Population Tubulin-Different-Phenotype (%),Fibroblast; [5],"29% and 49% and 6.4%, 21.79% [2024-01]"
same,Population Fragmented Nuclei (%),Fibroblast; [6],"19% and 33% and 10.51%, 6.58% [2024-01]"
same,Population Mitotic Cells (%),Fibroblast; [6],"16% and 40% and 63.64%, 23.08% [2024-01]"
same,Population Apoptotic (%),HEK-293T; [1],"54% and 47% and 4.17%, 12.6% [2024-01]"
same,Population Healthy Nuclei (%),HEK-293T; [1],"77% and 81% and 53.95%, 12.58% [2024-01]"
same,Population Pyknosed Nuclei (%),HEK-293T; [1],"13% and 44.21%, 84.11% [2024-01]"
same,Population Tubulin-Different-Phenotype (%),HEK-293T; [1],"33% and 20% and 4.88%, 21.05% [2024-01]"
same,Population Apoptotic (%),HEK-293T; [2],"53% and 13.68%, 30.3% [2024-01]"
same,Population Healthy Nuclei (%),HEK-293T; [2],"74% and 78% and 39.45%, 11.92% [2024-01]"
same,Population Mitochondria Different-Phenotype (%),HEK-293T; [2],"85% and 32.56%, 22.22% [2024-01]"
same,Population Pyknosed Nuclei (%),HEK-293T; [2],"17% and 15% and 58.1%, 87.42% [2024-01]"
same,Population Apoptotic (%),HEK-293T; [3],"35% and 39% and 7.3%, 22.73% [2024-01]"
same,Population Pyknosed Nuclei (%),HEK-293T; [3],"10% and 11% and 27.68%, 71.43% [2024-01]"
same,Total Cell Count,HEK-293T; [3],"459 and 383 and 496, 154 [2024-01]"
same,Population Fragmented Nuclei (%),HEK-293T; [4],"11% and 8% and 2.29%, 0.72% [2024-01]"
same,Population Healthy Nuclei (%),HEK-293T; [4],"70% and 78% and 64.38%, 17.39% [2024-01]"
same,Population Pyknosed Nuclei (%),HEK-293T; [4],"18% and 13% and 33.33%, 81.88% [2024-01]"
same,Total Cell Count,HEK-293T; [4],"449 and 471 and 393, 138 [2024-01]"
same,Population Apoptotic (%),HEK-293T; [5],"20% and 14% and 4.76%, 24.1% [2024-01]"
same,Population Pyknosed Nuclei (%),HEK-293T; [5],"8% and 5% and 11.73%, 42.56% [2024-01]"
same,Population Tubulin-Different-Phenotype (%),HEK-293T; [5],"17% and 11% and 1.75%, 42.86% [2024-01]"
same,Total Cell Count,HEK-293T; [5],"771 and 640 and 1253, 195 [2024-01]"
same,Population Fragmented Nuclei (%),HEK-293T; [6],"14% and 10% and 3.07%, 3.09% [2024-01]"
same,Population Hoechst High Intensity Objects (%),HEK-293T; [6],"15% and 8% and 0.14%, 2.41% [2024-01]"
same,Population Pyknosed Nuclei (%),HEK-293T; [6],"12% and 9% and 19.39%, 36.42% [2024-01]"
same,Population Tubulin-Different-Phenotype (%),HEK-293T; [6],"63% and 15.29%, 81.63% [2024-01]"
same,Total Cell Count,HEK-293T; [6],"605 and 613 and 718, 166 [2024-01]"
same,Population Apoptotic (%),U2OS; [1],"61% and 100% and 38.1%, 30.77% [2024-01]"
same,Population Fragmented Nuclei (%),U2OS; [1],"22% and 18% and 0.93%, 3.17% [2024-01]"
same,Population Mitochondria Different-Phenotype (%),U2OS; [1],"3% and 18% and 1.05%, 12.1% [2024-01]"
same,Population Mitotic Cells (%),U2OS; [1],"38% and 0% and 61.9%, 69.23% [2024-01]"
same,Population Pyknosed Nuclei (%),U2OS; [1],"9% and 3% and 9.81%, 13.76% [2024-01]"
same,Total Cell Count,U2OS; [1],"213 and 90 and 428, 189 [2024-01]"
same,Population Fragmented Nuclei (%),U2OS; [2],"24% and 21% and 2%, 4.85% [2024-01]"
same,Population Membrane Permeable-Phenotype (%),U2OS; [2],"34% and 25% and 1.53%, 9.91% [2024-01]"
same,Population Mitochondria Different-Phenotype (%),U2OS; [2],"29% and 55% and 6.9%, 53.15% [2024-01]"
same,Population Fragmented Nuclei (%),U2OS; [3],"22% and 25% and 1.33%, 2.14% [2024-01]"
same,Population Membrane Permeable-Phenotype (%),U2OS; [3],"6% and 14% and 1.44%, 2.03% [2024-01]"
same,Population Mitochondria Different-Phenotype (%),U2OS; [3],"3% and 13% and 0.9%, 7.11% [2024-01]"
same,Population Mitotic Cells (%),U2OS; [3],"17% and 33% and 64.1%, 62.5% [2024-01]"
same,Population Tubulin-Different-Phenotype (%),U2OS; [3],"3% and 13% and 1.08%, 1.02% [2024-01]"
same,Total Cell Count,U2OS; [3],"249 and 112 and 602, 234 [2024-01]"
same,Population Fragmented Nuclei (%),U2OS; [4],"27% and 19% and 4.23%, 2.81% [2024-01]"
same,Population Membrane Permeable-Phenotype (%),U2OS; [4],"16% and 20% and 1.19%, 3.91% [2024-01]"
same,Population Mitochondria Different-Phenotype (%),U2OS; [4],"34% and 53% and 6.27%, 58.59% [2024-01]"
same,Total Cell Count,U2OS; [4],"288 and 146 and 449, 178 [2024-01]"
same,Population Fragmented Nuclei (%),U2OS; [5],"16% and 22% and 1.68%, 2.29% [2024-01]"
same,Total Cell Count,U2OS; [5],"354 and 145 and 1014, 393 [2024-01]"
same,Population Fragmented Nuclei (%),U2OS; [6],"26% and 18% and 5.29%, 4.45% [2024-01]"
same,Population Membrane Permeable-Phenotype (%),U2OS; [6],"23% and 24% and 1.31%, 3.87% [2024-01]"
same,Population Mitochondria Different-Phenotype (%),U2OS; [6],"22% and 39% and 2.24%, 27.07% [2024-01]"
same,Total Cell Count,U2OS; [6],"353 and 173 and 699, 248 [2024-01]"
CC(C)c1ccc(/C=N/NC(=O)c2ccc(O)cc2)cc1,Population Apoptotic (%),Fibroblast; [2],4.44% and 22.92%
same,Population Apoptotic (%),Fibroblast; [4],4.76% and 16.67%
same,Population Mitochondria Different-Phenotype (%),Fibroblast; [5],13.78% and 3.57%
same,Population Tubulin-Different-Phenotype (%),HEK-293T; [1],5.8% and 31.25%
same,Population Healthy Nuclei (%),HEK-293T; [2],53.52% and 14.94%
same,Population Tubulin-Different-Phenotype (%),HEK-293T; [2],4.74% and 26.09%
same,Total Cell Count,HEK-293T; [3],566 and 168
same,Population Pyknosed Nuclei (%),HEK-293T; [5],11.47% and 44.61%
same,Population Tubulin-Different-Phenotype (%),HEK-293T; [5],2% and 34.55%
same,Total Cell Count,HEK-293T; [5],1345 and 204
same,Total Cell Count,HEK-293T; [6],1379 and 207
same,Total Cell Count,U2OS; [4],535 and 177
same,Total Cell Count,U2OS; [6],992 and 292
O=C(CCCc1ccccc1)Nc1nc2ccccc2c(=O)s1,Population Membrane Permeable-Phenotype (%),Fibroblast; [2],1% and 13%
same,Population Mitochondria Different-Phenotype (%),Fibroblast; [2],4% and 17%
same,Population Mitochondria Different-Phenotype (%),Fibroblast; [4],3% and 14%
same,Population Tubulin-Different-Phenotype (%),Fibroblast; [4],15% and 62%
same,Population Mitochondria Different-Phenotype (%),Fibroblast; [6],2% and 14%
same,Population Hoechst High Intensity Objects (%),HEK-293T; [4],6% and 24%
same,Population Apoptotic (%),HEK-293T; [6],22% and 68%
same,Population Mitotic Cells (%),U2OS; [1],7% and 44%
same,Population Mitotic Cells (%),U2OS; [2],28% and 0%
COc1ccc2nc3ccc(OC)cc3c(SCCCN)c2c1.Cl,Population Apoptotic (%),Fibroblast; [4],12.5% and 50%
same,Population Apoptotic (%),Fibroblast; [5],28.57% and 0%
same,Population Mitochondria Different-Phenotype (%),Fibroblast; [5],13.69% and 3.11%
same,Population Healthy Nuclei (%),HEK-293T; [1],52.37% and 9.62%
same,Population Mitochondria Different-Phenotype (%),HEK-293T; [1],35.64% and 0%
same,Total Cell Count,HEK-293T; [3],550 and 164
same,Population Apoptotic (%),HEK-293T; [5],4.83% and 25%
same,Population Pyknosed Nuclei (%),HEK-293T; [5],11.42% and 42.7%
same,Population Tubulin-Different-Phenotype (%),HEK-293T; [5],2.76% and 46.74%
same,Total Cell Count,HEK-293T; [5],1271 and 179
same,Population Healthy Nuclei (%),HEK-293T; [6],19.23% and 3.1%
same,Population Tubulin-Different-Phenotype (%),HEK-293T; [6],3.46% and 60%
same,Population Membrane Permeable-Phenotype (%),U2OS; [2],8.06% and 34.19%
same,Population Mitochondria Different-Phenotype (%),U2OS; [2],3.3% and 64.96%
same,Population Mitotic Cells (%),U2OS; [2],50% and 0%
same,Population Healthy Nuclei (%),U2OS; [4],24.34% and 7.22%
same,Population Membrane Permeable-Phenotype (%),U2OS; [4],1.32% and 14.81%
same,Population Mitochondria Different-Phenotype (%),U2OS; [4],1.66% and 43.52%
same,Population Healthy Nuclei (%),U2OS; [6],28.2% and 5.08%
same,Population Membrane Permeable-Phenotype (%),U2OS; [6],3.3% and 13.58%
same,Population Mitochondria Different-Phenotype (%),U2OS; [6],0.37% and 33.33%
CC/C(=C(\c1ccc(O)cc1)c1ccc(OCCN(C)C)cc1)c1ccccc1 [AFIMOXIFENE],Population Apoptotic (%),Fibroblast; [2],5.88% and 19.05%
same,Population Apoptotic (%),Fibroblast; [5],5% and 26.67%
same,Population Tubulin-Different-Phenotype (%),HEK-293T; [1],4.83% and 25.81%
same,Population Healthy Nuclei (%),HEK-293T; [2],44.11% and 6.77%
same,Population Membrane Permeable-Phenotype (%),HEK-293T; [2],0.76% and 11.11%
same,Total Cell Count,HEK-293T; [3],641 and 186
same,Population Healthy Nuclei (%),HEK-293T; [4],58.29% and 17.05%
same,Population Tubulin-Different-Phenotype (%),HEK-293T; [5],1.4% and 53.9%
same,Total Cell Count,HEK-293T; [5],1253 and 251
same,Population Tubulin-Different-Phenotype (%),HEK-293T; [6],9.51% and 53.12%
same,Total Cell Count,HEK-293T; [6],491 and 129
same,Population Apoptotic (%),U2OS; [1],48.39% and 12.5%
same,Population Mitochondria Different-Phenotype (%),U2OS; [2],3.9% and 55.65%
same,Population Mitochondria Different-Phenotype (%),U2OS; [4],1.32% and 46.49%
same,Total Cell Count,U2OS; [5],873 and 282
same,Population Mitochondria Different-Phenotype (%),U2OS; [6],1.49% and 26%

# Some entries of the source have several records that differ or are many. Only these are listed. The source may hold further records. Results that share an entry are repeats in other runs, samples, wells, individuals or studies. Marks such as [2022-09] give the month of the run.
